Source: PubChem BioAssay AID1346428 (National Center for Advancing Translational Sciences (NCATS), 2018)
“And” between values parts separate entries of the source, which are not always exact repeats. Equal entries are not always repeated. Screen size: about 48,000 compounds; about 1,200 (2.5%) were called active. Inconclusive results (about 2%) are left out.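 How the source made its calls: active means activation of at least 60% and not above a set upper limit (about 1 call in 100 departs from these limits); inconclusive means activation of 40% to 60%, or above that upper limit; inactive means activation under 40%.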 Some of the results follow.

Each compound was assayed against Probable G-protein coupled receptor 32 (Homo sapiens) (UniProt O75388) (assay: qHTS for Agonists of Human Resolvin D1 Receptor DRV1). Settings: CHO-K1 GPR32 beta-arrestin PathHunter luminescence, 90 min; at 76.9 µM; active compounds read high; zero percent set by DMSO-only wells.
Summary of the method: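 CHO-K1 cells stably expressing ProLink-tagged GPR32 and Enzyme Activator-tagged beta-arrestin were seeded at 2,500 cells/well overnight, exposed to compounds for 90 min at 37 °C, then read by beta-Gal complementation chemiluminescence after 1 h detection reagent.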
Further: 0% is about no effect.

Chain of UniProt O75388 (O75388 whole entry, looked up): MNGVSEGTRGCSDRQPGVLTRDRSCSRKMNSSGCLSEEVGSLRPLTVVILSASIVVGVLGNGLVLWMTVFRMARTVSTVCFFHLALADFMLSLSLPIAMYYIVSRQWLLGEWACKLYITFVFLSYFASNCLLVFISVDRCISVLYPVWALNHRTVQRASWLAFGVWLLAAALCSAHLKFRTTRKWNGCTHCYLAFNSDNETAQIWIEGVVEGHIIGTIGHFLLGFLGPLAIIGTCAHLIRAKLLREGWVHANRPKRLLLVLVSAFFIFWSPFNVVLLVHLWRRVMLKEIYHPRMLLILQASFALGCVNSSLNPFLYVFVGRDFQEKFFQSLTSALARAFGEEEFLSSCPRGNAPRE

activation, active:
CCn1ccc2c(OCC(=O)Nc3ccccc3C(F)(F)F)cccc2c1=O 84.9%
COc1ccc(Cn2c(C(=O)O)c(CNCCc3cc(OC)ccc3OC)c3ccc(C)cc32)cc1 106%

activation, inactive:
Cc1ccccc1CN1C(=O)c2ccccc2S(=O)(=O)c2ccc(C(=O)OCC3CCCO3)cc21 (stereo not drawn) -8.6%
CC(NC(=O)CN1C(=O)c2cccnc2Oc2ccc(Cl)cc21)c1ccccc1 (stereo not drawn) -22.1%
Cc1cc(OC(C)C(=O)Nc2sc3c(c2C(N)=O)CCCC3)ccc1Cl (stereo not drawn) 47.8%
CCOc1ccccc1CNc1nc2nc(C)cc(C)n2n1 7.74%
Cc1ccc(Cn2c(C(C)NC(=O)c3ccccc3)nc3ccccc32)cc1 (stereo not drawn) -14.9%
O=C(NCCCN1CCN(c2ccccc2)CC1)c1ccc2nc(Cc3ccccc3)oc2c1 -21.1%
Cc1noc(C)c1S(=O)(=O)N1CCC(C(=O)N2CCN(c3cccc(C(F)(F)F)c3)CC2)CC1 15.6%
CC(C)NC(=O)CCC(=O)N1Cc2ccccc2Oc2ncccc21 -10.1%
CCOC(=O)c1c(C)[nH]c(CCC(=O)Nc2ccc(OC)c(OC)c2)c1C 6.68%
CCC1CCCCN1C(=O)CSc1nc2c([nH]c3ccccc32)c(=O)n1-c1ccc(OC)cc1 (stereo not drawn) -11%
Cn1ccc2cc(S(=O)(=O)N3CCN(C(=O)Nc4ccc(F)cc4F)CC3)ccc21 -4.04%
Cc1ccc(-n2nc3c(=O)n(C(C)C(=O)NCc4ccco4)nc(C)c3c2C)cc1 (stereo not drawn) -10.3%
Cc1ccc(Cl)cc1N1CCN(CCCNC(=O)c2ccc3nc(N4CCCCC4)sc3c2)CC1 -7.97%
NS(=O)(=O)c1cc2c(cc1C(F)(F)F)NC(Cc1ccccc1)NS2(=O)=O (stereo not drawn) -1.38%
Oc1c(C(c2ccccc2)N2CCC(O)CC2)sc2nc(-c3ccco3)nn12 (stereo not drawn) -12.2%
COC(=O)CC1Oc2ccc(Cl)cc2-n2cc(-c3ccccc3)nc21 (stereo not drawn) 15.3%
CCOc1ccc(CCNC(=O)c2cnc3sc(N4CCCC4)nn3c2=O)cc1 10.2%
CCCCOc1cccc(C(=O)N(Cc2ccc(C)o2)c2ccccn2)c1 25.7%
COc1ccc(NS(=O)(=O)c2ccc3[nH]c4c(c3c2)CCCC4)cc1OC 13.7%
CCn1c(CN2CCCCC2)nc2cc(NC(=O)c3cc(OC)c(OC)c(OC)c3)ccc21 -8.85%
CC(=O)Nc1ccc(NC(=O)c2ccc3c(c2)N(Cc2cccc(Cl)c2)C(=O)c2ccccc2S3(=O)=O)cc1 -22.4%
CCOC(=O)C(C)Sc1ccc2nnc(CCNS(=O)(=O)c3ccccc3)n2n1 (stereo not drawn) -7.68%
Cc1ccc(C)c(NC(=O)c2ccc(CN3CC(=O)N4CCCCC4C3=O)cc2)c1 (stereo not drawn) -11.2%
COc1ccc(Nc2c3c(nc4ccc(NC(=O)c5ccc(F)cc5)cc24)CCCC3)cc1OC -34%
CC1N=C2c3ccccc3N=C(SCC(=O)NCCc3ccccc3)N2C1=O (stereo not drawn) -10.7%
CN(Cc1ccccc1)C(=O)c1nc(-c2ccc(Cl)cc2)n2c1CCCCC2 6.71%
O=C(c1cccn1-c1nnc(N2CCCC2)s1)N1CCN(c2ccc(Cl)cc2)CC1 14.8%
Cn1c(=O)[nH]c2cc(-c3noc(-c4ccc(C#N)cc4)n3)ccc21 4.01%
Cc1cc(C)n(-c2nnc(Nc3ccc(C)c(Cl)c3)c3ccccc23)n1 -3%
CCCS(=O)(=O)NCCc1sc2nc(-c3ccc(F)cc3)nn2c1C -9.71%
Cc1ccc2c(c1)C(c1ccccc1)N(C(=O)Cc1ccc(F)cc1)CC(=O)N2 (stereo not drawn) -20.8%
CN(C)C(=O)c1c(NC(=O)c2ccccc2F)sc2c1CCCC2 -1.98%
CC(=O)Nc1ccc(S(=O)(=O)NCC2CCC(C(=O)NCCN(CC(C)C)CC(C)C)CC2)cc1 (stereo not drawn) -3.84%
COc1ccc(C2=NC(C)(C)N(CC(=O)Nc3cccc(C)c3)C2=O)cc1 -5.9%
CC1=C(C(=O)Nc2ccc(Cl)cc2)C(CC(C)C)n2nc(SCc3ccccc3C)nc2N1 (stereo not drawn) -0.172%
Nc1nc2ccc([N+](=O)[O-])cc2s1 -24.1%
O=C(COc1ccc2ccccc2c1)NC1CC(=O)N(c2cccc(F)c2)C1 (stereo not drawn) 0.267%
COc1cc(C2C(=O)N(C3CCCCCC3)CC(=O)N2CCc2ccccc2)ccc1OC(C)C (stereo not drawn) -7.83%
Cc1ccc(C)c(-n2c(N)c(C#N)c3nc4ccccc4nc32)c1 7.9%
COc1ccccc1CNS(=O)(=O)c1cnc(N)nc1 -3.8%
CCCCCCCC(=O)[O-].CCCCCCCC(=O)[O-].[Zn+2] 35.3%
Cc1nc2ccn(Cc3ccco3)c(=O)c2cc1C(=O)NCc1ccccc1 -15%
COc1cccc(CNc2cc(C)nc3nc(-c4ccc(C)cc4)nn23)c1 21.1%
O=C(NCC(c1ccco1)S(=O)(=O)c1cccs1)c1ccccc1F (stereo not drawn) -2.9%
CCCc1cc(=O)[nH]c2nnc(SCC)n12 30.9%
O=c1oc2ccc3ccccc3c2cc1-c1nnc(Nc2ccc(F)cc2)s1 2.26%
Cc1ccc(N2CC(C)Cn3c2nc2c3c(=O)n(Cc3cccc(Cl)c3)c(=O)n2C)cc1 (stereo not drawn) -0.63%
COc1ccc(NC(=O)c2oc3ccc(S(=O)(=O)N4CCOCC4)cc3c2C)cc1 20.7%
COc1ccc(C2c3c(n(C)c4ccccc34)C(=O)N2CC(=O)Nc2cccc(F)c2)cc1 (stereo not drawn) -25.9%
O=C(O)c1ccc(CNCc2ccccc2Cl)s1 3.74%
CCc1ccc(C(=O)N2CCC(c3nc(-c4ccc(S(=O)(=O)N5CCCC5)cc4)no3)CC2)cc1 -2.33%
COc1ccc(C(=O)Nc2nnc(SCc3cc(=O)n4cccc(C)c4n3)s2)cc1 -8.32%
O=S(=O)(c1ccc(Br)cc1)c1nnn2c1nc(NCc1ccc3c(c1)OCO3)c1sccc12 -10.3%
Cc1cccc(CNC(=O)c2ccc3oc(=O)n(Cc4ccccc4)c3c2)c1 -6.72%
COc1cc(Cl)c(C)cc1NC(=O)Cn1ncc2c1-c1cc(C)ccc1OC2 8.48%
CCCSc1ncc(Cl)c(C(=O)Nc2c(C(=O)Nc3ccc(OC)cc3)oc3ccccc23)n1 -9.92%
Cc1ccc(CNC(=O)CCCCCn2c(=O)c3sccc3n(CC(=O)Nc3c(C)cc(C)cc3C)c2=O)cc1 0.328%
CCCOc1ccc(CNC(=O)CCCn2nc(C)c3sc4ccccc4c3c2=O)cc1 -12.9%
O=C(Nc1cc(Cl)ccc1Cl)c1cc2nc(-c3ccc4c(c3)OCO4)cc(C(F)(F)F)n2n1 -5.21%
CC1CCCN(Cc2nc3c(c(=O)n(C)c(=O)n3C)n2Cc2ccc(Cl)cc2)C1 (stereo not drawn) -1.63%
Cc1cc(C)cc(NC(=O)CSc2oc(-c3ccco3)nc2S(=O)(=O)c2ccc(Cl)cc2)c1 -0.265%
CSc1ccc(CNC(=O)C2CCN(c3nc4ccccc4nc3C(F)(F)F)CC2)cc1 -17.2%
COc1ccc(Cl)cc1NC(=O)C1CCN(S(=O)(=O)c2ccc3c(c2)CC(C)N3C(C)=O)CC1 (stereo not drawn) 18.2%
Cn1nc(C(=O)NCc2ccccc2Cl)c2c1-c1ccccc1S(=O)(=O)C2 -2.75%
COc1ccc(Nc2cc(C)c3cc(NC(=O)Cc4ccc(Cl)cc4)ccc3n2)cc1 24.5%
Cc1ccc(Cl)cc1N1CCN(c2ncnc3c2nc2n3CCCCC2)CC1 -10.2%
CCCCNC(=O)C1CCN(c2nc3ccccc3nc2C(F)(F)F)CC1 4.49%
COc1ccc(-n2ncc(C(=O)N3CCN(c4cc(C)ccc4C)CC3)c2C2CCN(C(=O)OC(C)(C)C)CC2)cc1 -2.42%
COc1ccc(CNCc2c(C(=O)O)c(C)n(Cc3ccccc3C)c2C)c(OC)c1 -21.9%
CCN(CC)CCNC(=O)c1cn(CCOC)c(=O)c2c1c1ccccc1n2C -11.9%
Cc1cc(C)c(S(=O)(=O)N2CCC(N3CCN(Cc4ccccc4)C(=O)C3=O)CC2)c(C)c1 -8.8%
CCN(CC)S(=O)(=O)c1cccc(C(=O)Nc2sc3c(c2C#N)CCC(C)C3)c1 (stereo not drawn) 15.5%
COc1ccc2c(c1)c1c(c(=O)n(-c3ccccc3C)c(=O)n1C)n2C 23.1%
CCOC(=O)C1=C(C)NC(C)=C(C(=O)OC)C1c1cccc([N+](=O)[O-])c1 (stereo not drawn) -25.4% and -27.8%
O=C(CSc1cn(CCNC(=O)c2c(F)cccc2F)c2ccccc12)Nc1ccc(F)cc1 -3.66%
Cc1nnc(NC(=O)CSc2nccn2Cc2ccc(Cl)cc2)s1 -7.23%
COc1ccc(C)cc1NC(=O)c1cc2c(=O)n(Cc3cccnc3)ccc2nc1C -6.72%
Cc1ccc(-c2c(C(=O)N3CCN(c4cc(Cl)ccc4C)CC3)oc(=O)c3ccccc23)cc1 11.5%
CCc1ccccc1NC(=O)Cc1ccc(NC(=O)N2CCCCc3ccccc32)cc1 -0.346%
Cc1nc2nc(NC(=O)CC(C)C)[nH]n2c(=O)c1Cc1ccccc1 9.36%
O=C(Nc1ccc(F)c(Cl)c1)N1CCC2(CC1)Oc1ccccc1C(=O)N2Cc1ccccc1F -14.4%
